# Data: PubChem BioAssay (Tox21)
# Several values for one entry are separate records, joined by “and”; a condition that tells them apart may be missing. Identical values can stand only once. Activity calls are given as the source filed them. Calls come from the whole dose curve; as a rule, active = well fitted activation curve with a large enough effect in the signal ratio in the repeat runs (not every such curve was filed as active); inconclusive = weak or mixed curves, or effect the other way; inactive = no such curve, though single readings can be large or run the other way; the % refers to the signal ratio.
# Target: Glucocorticoid receptor (Homo sapiens) (UniProt P04150)
# Assay: qHTS assay to identify small molecule agonists of the glucocorticoid receptor (GR) signaling pathway (AID 720691)
# Conditions: GR-bla HeLa, beta-lactamase reporter ratio, 18 h; activation: at 62.4 µM (top of the series) unless noted
# Method in brief: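 Cells: GR-bla HeLa, endogenous GR with stably integrated GRE-beta-lactamase reporter. Treatment 18 h, 37 C, compounds delivered in DMSO. Detection via LiveBLAzer B/G FRET substrate, 2 h RT, fluorescence intensity.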
# % is set by controls: 0 for no effect and ±100 for the full control effect; potency is the fitted concentration of half-maximal effect.
# Chain of UniProt P04150 (P04150 whole entry, looked up): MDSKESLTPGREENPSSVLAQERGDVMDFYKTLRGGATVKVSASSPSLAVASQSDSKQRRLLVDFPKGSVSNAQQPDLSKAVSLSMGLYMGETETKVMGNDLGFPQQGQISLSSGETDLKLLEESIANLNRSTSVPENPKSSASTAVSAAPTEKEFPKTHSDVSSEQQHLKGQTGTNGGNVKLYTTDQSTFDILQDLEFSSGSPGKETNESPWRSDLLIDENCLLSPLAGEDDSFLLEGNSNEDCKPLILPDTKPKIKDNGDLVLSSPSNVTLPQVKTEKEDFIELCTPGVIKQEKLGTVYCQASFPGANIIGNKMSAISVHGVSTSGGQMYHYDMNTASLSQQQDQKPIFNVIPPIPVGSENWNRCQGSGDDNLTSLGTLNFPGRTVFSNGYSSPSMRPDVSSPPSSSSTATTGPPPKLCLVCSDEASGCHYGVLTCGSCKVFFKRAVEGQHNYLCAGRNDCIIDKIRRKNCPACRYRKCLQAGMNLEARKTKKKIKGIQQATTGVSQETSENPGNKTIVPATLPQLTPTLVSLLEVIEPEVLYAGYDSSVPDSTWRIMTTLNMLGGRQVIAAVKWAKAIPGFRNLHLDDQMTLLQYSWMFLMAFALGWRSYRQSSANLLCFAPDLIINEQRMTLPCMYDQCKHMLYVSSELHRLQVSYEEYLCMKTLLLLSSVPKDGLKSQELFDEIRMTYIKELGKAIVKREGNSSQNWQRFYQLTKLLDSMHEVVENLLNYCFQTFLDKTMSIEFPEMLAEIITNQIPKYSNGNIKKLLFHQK
Compound,Potency,activation
CC1(C)O[C@@H]2C[C@H]3[C@@H]4C[C@H](F)C5=CC(=O)CC[C@]5(C)[C@H]4[C@@H](O)C[C@]3(C)[C@]2(C(=O)CO)O1,active: 18.2 nM [inconclusive] and active: 3.9 nM,
CCCCC(=O)O[C@]1(C(=O)CO)[C@@H](C)C[C@H]2[C@@H]3CCC4=CC(=O)C=C[C@]4(C)[C@@]3(F)[C@@H](O)C[C@@]21C,active: 0.0019 µM,
CC1(C)O[C@@H]2C[C@H]3[C@@H]4C[C@H](F)C5=CC(=O)C=C[C@]5(C)[C@H]4[C@@H](O)C[C@]3(C)[C@]2(C(=O)CO)O1,active: 1.29 µM [inconclusive],
C=C1CC[C@H](O)CC1=C/C=C1\CCC[C@]2(C)[C@@H]([C@H](C)/C=C/[C@H](C)C(C)C)CC[C@@H]12,inconclusive: 61.1 µM [cytotoxic],
CCc1ccc2c(c1)C(=O)c1ccccc1C2=O,,inconclusive: -11.2%
CCCCCC[C@@H](O)C/C=C\CCCCCCCC(=O)O,inconclusive: 61.6 µM [cytotoxic],
